Screen size: about 420,000 compounds; about 64,000 (15%) were called active. The shares of active, inactive and inconclusive entries below differ from those in the screen. The call rests on the fitted dose curve; in most records, active means well fitted inhibition curve with a large enough effect; inconclusive means small, poorly fitted or top-dose-only effect; inactive means flat fitted curve, though single readings scatter. No potency is given beside an inconclusive call; the fits are too rough.
Assay: qHTS for Inhibitors of human tyrosyl-DNA phosphodiesterase 1 (TDP1): qHTS in cells in absence of CPT; further: nearly all actives have a fitted effect of over 55% in size
Conditions: DT40 Tdp1-/- hTDP1 cells, no CPT, ATP luminescence, 48 h; activity change, negative = growth inhibition: at 46.2 µM (top of the series)
In short: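 Growth kinetics read by CellTiter-Glo luminescence after ≥48 hr at 37 °C. Cells: DT40 Tdp1-/- stably carrying human TDP1, 400 per well, compound exposure in the absence of CPT (DMSO vehicle).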
In the case of `CCOC(=O)c1c(-c2ccc(C)cc2)csc1NC(=O)c1cc2ccccc2oc1=O`, the “activity change, negative = growth inhibition” value is reported as inactive: -19.1%. For `Nc1ncnc2c1ncn2[C@@H]1O[C@H](CNS(=O)(=O)CCCCl)[C@@H](O)[C@H]1O`, the “activity change, negative = growth inhibition” value was inactive: -9.43%. For `Cc1nn(-c2ccccc2)c2c1N(CCCC(=O)NCc1ccc(N(C)C)cc1)C(=O)CS2`, the Potency was active: 23.1 µM. With `C=CCn1c(O)c(N=NC(=S)Nc2cccc(OC)c2)c2ccccc21` the Potency was active: 2.91 µM. With `O=C(CSCc1ccc(Br)cc1)NCCc1ccccc1` the “activity change, negative = growth inhibition” value was inactive: -8.49%. For `Cc1ccc(S(=O)(=O)N(CC(O)CN2CCCCC2)c2ccccc2)cc1` (stereo unspecified), the activity change, negative = growth inhibition was inconclusive: -33.4% [inhibitor]. With `COc1ccc(CCNC(=O)CSc2nnc3ccc(-c4ccncc4)nn23)cc1` the “activity change, negative = growth inhibition” value was inactive: 3.54%. With `O=C1CCC(=O)N1c1ccc(-c2nc3sc4c(c3c(=O)o2)CCC4)cc1` the Potency was inconclusive [inhibitor, partial curve]. With `Cc1ccc(S(=O)(=O)N(C)C)cc1NC(=O)C1Cc2ccccc2CN1C(=O)c1ccco1` (stereo unspecified) the “activity change, negative = growth inhibition” value was inactive: -0.334%. With `Cc1ccc(S(=O)(=O)N2CCOCC2)cc1C(=O)Nc1ccccc1N1CCCC1` the Potency was inconclusive [inhibitor, single point]. For `COc1cc(C(=O)Nc2sc3c(c2C#N)CCN(C(C)=O)C3)cc(OC)c1OC`, the Potency was inconclusive [inhibitor, single point]. For `Fc1ccc(NC(=S)N2CCc3[nH]c4ccccc4c3C2)cc1`, the Potency was inconclusive [inhibitor, single point]. For `Cc1cc(NC(=O)c2cc(-c3ccc(C)c(C)c3)nc3ccccc23)no1`, the Potency was active: 10.3 µM. For `CCC1CCCCN1C(=O)CCCOc1ccccc1` (stereo unspecified), the Potency was inconclusive [inhibitor, single point]. For `O=C(c1ccco1)N1CCN(C(c2ccccc2Cl)c2nnnn2Cc2ccco2)CC1` (stereo unspecified), the Potency was inconclusive [inhibitor, single point]. For `CC1(C)CC(NC(=O)c2cc([N+](=O)[O-])cc([N+](=O)[O-])c2)CC(C)(C)N1`, the Potency was inconclusive [inhibitor, single point]. In the case of `CCCCC(=O)Nc1nc(C)c(-c2csc(Nc3ccc(Cl)cc3)n2)s1`, the Potency is reported as active: 23.1 µM. With `CCCCCc1c(-c2cccc(F)c2)ncn1CCc1ccccc1OC` the Potency was active: 18.4 µM. For `COCCN(C(=O)CSc1nnc(-c2ccc(C(C)(C)C)cc2)n1N)c1c(N)n(CC(C)C)c(=O)[nH]c1=O`, the “activity change, negative = growth inhibition” value was inactive: -1.05%. In the case of `Cc1ccc(S(=O)(=O)NC(C)C(c2cccs2)N2CCN(C)CC2)cc1` (stereo unspecified), the “activity change, negative = growth inhibition” value is reported as inactive: -11.7%. For `CCOC(=O)N1CCC(NC(=O)CC2C(=O)NCCN2Cc2ccccc2F)CC1` (stereo unspecified), the “activity change, negative = growth inhibition” value was inactive: 14.5%. With `COc1cc(C(=O)N/N=C/c2ccc(OC)c(CN3CCN(c4ccc(F)cc4)CC3)c2)ccc1O` the Potency was inconclusive [inhibitor, single point]. For `COc1ccc(NC(=O)CSc2nnc(C3CCCCC3)n2N)cc1OC`, the “activity change, negative = growth inhibition” value was inactive: -8.51%. For `O=C(Nc1cccc(F)c1)/C(=C\c1ccco1)NC(=O)c1cccs1`, the activity change, negative = growth inhibition was inconclusive: -33.8% [inhibitor]. With `CCO/C(C)=N/Oc1cncnc1` the “activity change, negative = growth inhibition” value was inactive: -0.569%. With `N#CC1(NC(=O)CSc2nnc3n2CCCCC3)CCCCC1` the “activity change, negative = growth inhibition” value was inactive: -13.5%. For `Cc1n[nH]c2ccc(Br)cc2c1=O`, the Potency was inconclusive [inhibitor, partial curve, poor fit]. With `COc1ccc2c(c1)CCC/C2=N\Nc1nc(C(=O)NN)cs1` the Potency was inconclusive [inhibitor, full curve]. For `CC(C)NC(=O)C1(C)CN(S(C)(=O)=O)CC(=O)N1C1CC1` (stereo unspecified), the “activity change, negative = growth inhibition” value was inactive: 12.6%. For `Cc1ccc(NC(=S)N/N=C2/CCCCc3ccccc32)cc1`, the Potency was inconclusive [inhibitor, single point]. For `O=C(Nc1ccc(Cl)c(Cl)c1)C1CC(=O)N(c2ccc(Br)cc2)C1` (stereo unspecified), the activity change, negative = growth inhibition was inconclusive: -30.3% [inhibitor]. In the case of `CC(=O)c1ccc(S(=O)(=O)N2CCNCC2)cc1`, the Potency is reported as inconclusive [inhibitor, single point]. In the case of `COc1cc2c(cc1OC)C1=C(C#N)COCN1CC2`, the Potency is reported as inconclusive [inhibitor, single point]. In the case of `CC(C)(C)CC(=O)NC(=S)Nc1ccccc1C(F)(F)F`, the Potency is reported as inconclusive [inhibitor, single point]. In the case of `CCc1cc2ccccc2nc1Cl`, the “activity change, negative = growth inhibition” value is reported as inactive: 15.4%. In the case of `N#CC1=C(N)Oc2n[nH]c(-c3ccc(F)cc3)c2C1c1cccc(OC(=O)N2CCOCC2)c1` (stereo unspecified), the “activity change, negative = growth inhibition” value is reported as inactive: -24.4%. In the case of `COc1ccc(C(=O)NCC(=O)NCC2COc3ccccc3O2)cc1` (stereo unspecified), the “activity change, negative = growth inhibition” value is reported as inactive: -11.7%. With `CCN1C(=O)C(=O)N(CC(=O)N(C)CC(=O)Nc2ccccc2C(F)(F)F)C1=O` the “activity change, negative = growth inhibition” value was inactive: 29.9%. In the case of `COc1cccc(NC(=O)Cn2nc(Cc3cccnc3)c3ccccc3c2=O)c1`, the Potency is reported as inconclusive [inhibitor, single point]. For `CCN1CCN(C(=O)c2cc(=O)c3cc(C)ccc3o2)CC1`, the “activity change, negative = growth inhibition” value was inactive: -4.43%. For `COc1ccc(Cn2c(SCC(=O)NCc3ccc(Cl)cc3)nc3ccsc3c2=O)cc1`, the “activity change, negative = growth inhibition” value was inactive: -22.1%. For `CCOC(=O)c1ccc(-n2c(CCC(=O)O)ccc2-c2ccc(Br)cc2)cc1`, the Potency was inconclusive [inhibitor, single point]. For `CCCCOc1ccc(C(=O)N/C(=C\c2cccc([N+](=O)[O-])c2)C(=O)OC(C)C)cc1`, the activity change, negative = growth inhibition was inconclusive: -30.7% [inhibitor]. For `CCN(CC)Cc1c(C(=O)N2CCc3ccccc3C2)nc2ccc(Cl)cn12`, the “activity change, negative = growth inhibition” value was inactive: -14.7%. For `Cc1cccc(N(CC(=O)N/N=C/c2ccc(C(=O)O)cc2)S(=O)(=O)c2ccccc2)c1C`, the Potency was inconclusive [inhibitor, single point]. With `CC(C)n1c(=S)[nH]c2cc(Cl)ccc21` the Potency was inconclusive [inhibitor, partial curve, poor fit]. With `CCCCn1nnnc1C(CCSC)N1CCN(C/C=C/c2ccccc2)CC1` (stereo unspecified) the Potency was inconclusive [inhibitor, single point]. With `COc1cc(N=Cc2c(CO)cnc(C)c2O)cc(OC)c1OC` the “activity change, negative = growth inhibition” value was inactive: -17.1%. In the case of `CC(=O)N/C(=C\c1ccccc1)C(=O)OCC(=O)NC(C)C12CC3CC(CC(C3)C1)C2` (stereo unspecified), the Potency is reported as active: 20.6 µM. For `COc1ccc(N2C(=O)CS(=O)(=O)C23C(=O)N(Cc2cccc(F)c2)c2ccccc23)cc1OC` (stereo unspecified), the Potency was inconclusive [inhibitor, partial curve]. With `CC1(C)CC(=O)C2=C(C1)OC(N)=C(C#N)C2c1cccc(OC(=O)c2ccco2)c1` (stereo unspecified) the “activity change, negative = growth inhibition” value was inactive: -13.1%. For `CC(C)(CNC(=O)c1ccc([N+](=O)[O-])c(Cl)c1)CNC(=O)c1ccc([N+](=O)[O-])c(Cl)c1`, the Potency was active: 20.6 µM. With `O=C(COC(=O)CNC(=O)c1ccccc1)NCc1ccc2c(c1)OCO2` the “activity change, negative = growth inhibition” value was inactive: 4.1%. For `COc1ccc(C2Nc3ccccc3C(=O)N2Cc2ccccc2)cc1Cn1nnc2ccccc21` (stereo unspecified), the Potency was inconclusive [inhibitor, single point]. For `O=C(NCc1cccs1)c1ccc(Cn2c(SCc3ccccc3)nc3cccnc32)cc1`, the Potency was active: 25.9 µM. With `O=C(NC1CCCCC1)C1CC(=O)N(CCc2ccccc2)C1` (stereo unspecified) the “activity change, negative = growth inhibition” value was inactive: 1.22%. In the case of `CCCn1c(N)c(N(CCOC)C(=O)c2ccc(Cl)c([N+](=O)[O-])c2)c(=O)[nH]c1=O`, the “activity change, negative = growth inhibition” value is reported as inactive: -7.77%. In the case of `COc1ccc(NC(=S)NCc2ccc(F)cc2)c(OC)c1`, the Potency is reported as inconclusive [inhibitor, single point]. In the case of `CCOC(=O)c1c(-c2cccc([N+](=O)[O-])c2)csc1NC(=O)C1CC1`, the Potency is reported as active: 20.6 µM. In the case of `CC(C)[C@H](NC(=O)N1CCn2c1nc1ccccc12)C(=O)NCc1ccc(F)cc1`, the “activity change, negative = growth inhibition” value is reported as inactive: -19.5%. With `O=C(OCC(=O)N(CCc1ccccc1)Cc1ccccc1)c1ccccc1[N+](=O)[O-]` the Potency was inconclusive [inhibitor, single point]. For `CCOc1cc(N2CCOCC2)c(OCC)cc1NC(=O)COc1cccc(CC)c1`, the Potency was active: 8.2 µM. For `CCN(CC(=O)Nc1ccc2c(c1)OCCO2)C(=O)/C=C/c1ccc([N+](=O)[O-])cc1`, the “activity change, negative = growth inhibition” value was inactive: 0.659%. In the case of `COc1ccc(-c2csc(NC(=O)c3ccc(C(C)(C)C)cc3)c2C(=O)O)cc1`, the Potency is reported as active: 3.26 µM. With `COc1ccc(N2Cc3cccc(C(=O)Nc4cc(C)cc(C)c4)c3C2=O)cc1` the “activity change, negative = growth inhibition” value was inactive: -30.4%. For `COCCCNCCOCCOc1ccccc1-c1ccccc1`, the Potency was inconclusive [inhibitor, single point]. With `O=C(O)C1(S(=O)(=O)CCC(F)=C(F)F)CC1` the “activity change, negative = growth inhibition” value was inactive: -6.93%. In the case of `C[C@H](CO)N1C[C@H](C)[C@@H](CN(C)Cc2ccc(C(F)(F)F)cc2)OCc2cnnn2CCCC1=O`, the Potency is reported as inconclusive [inhibitor, single point]. For `O=c1cc(-c2ccccc2Cl)oc2c(NS(=O)(=O)c3cc(Cl)cc(Cl)c3O)ccc(O)c12`, the Potency was active: 11.6 µM. With `O=C(C1CC1)N1N=C(c2cccc(Br)c2)CC1(O)C(F)(F)F` (stereo unspecified) the Potency was inconclusive [inhibitor, single point]. With `CSC1=NC2(CCN(C(=O)NC3CCCCC3)CC2)N=C1c1ccc(C)cc1` the “activity change, negative = growth inhibition” value was inactive: -25.3%. In the case of `CCC(CO)Oc1cc(NC(=O)Cc2ccccc2F)c2ncn(C(C)C)c2c1` (stereo unspecified), the “activity change, negative = growth inhibition” value is reported as inactive: -15.1%. With `O=C(Nc1ccccc1C(=O)N1CCN(Cc2ccccc2)CC1)c1ccc(F)cc1` the activity change, negative = growth inhibition was inconclusive: -33% [inhibitor]. With `CC(=O)Nc1ccc(S(=O)(=O)N(C)Cc2cnn(C)c2)cc1` the Potency was active: 16.4 µM. For `CSC1=NS(=O)(=O)c2c(C)nn(C)c2S1`, the Potency was inconclusive [inhibitor, single point]. With `Cc1cc(F)ccc1NC(=O)CCS(=O)(=O)c1ccc2c(c1)CC(C)N2C(=O)C1CC1` (stereo unspecified) the Potency was inconclusive [inhibitor, single point].

Reference: PubChem BioAssay AID686978 (National Center for Advancing Translational Sciences (NCATS), 2013)
On the % scale 0 is the no-effect control and ±100 the full control effect; potency means the concentration at half of the fitted maximal effect; tags describe the fitted curve by direction and shape.
